Measured values taken from the supplement of paper PMC12217912.
This is one part of the list. Sequences were assembled here from the parent chain. Inactive controls read about 0.05.

B1: TEV protease; numbered along this chain (parent)
chain: MGESLFKGPRDYNPISSSICHLTNESDGHTTSLYGIGFGPFIITNKHLFRRNNGTLVVQSLHGVFKVKDTTTLQQHLVDGRDMIIIRMPKDFPPFPQKLKFREPQREERICLVTTNFQTKSMSSMVSDTSCTFPSGDGIFWKHWIQTKDGQCGSPLVSTRDGFIVGIHSASNFTNTNNYFTSVPKNFMELLTNQEAQQWVSGWRLNADSVLWGGHKVFMVKPEEPFQPVKEATQL

Variants of: B1
Assay: raw area under fraction-flipped curve 0-4 h after induction (AUC4h, not background-subtracted), DNA-recorder readout of cleavage of the substrate (dimensionless); higher = more cleavage of the substrate by the protease variant
Conditions: temperature: 34 °C; time window: 0-4 h after rhamnose induction
Protocol: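 In vivo DNA recorder in E. coli TOP10(DE3) ΔrhaA at 34 °C. Each TEVp single-site mutant (parent TEVp 0) is paired with a single-site variant of the 7-mer TEVs (canonical ENLYFQ|S). The substrate sits between flexible linkers in a Bxb1-sfGFP-TEVs-SsrA fusion, so cleavage stabilises Bxb1 and speeds flipping of a recombination array, read by NGS. The value is the raw area under the fraction-flipped curve over 0-4 h after rhamnose induction (AUC4h), with ≥20 reads per time point. It is not background-subtracted; inactive controls average about 0.047.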
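Further: Bxb1 expression induced with 0.2% (w/v) L-rhamnose at OD600 near 0.5, cultures sampled hourly, flipped fraction per protease–substrate barcode pair counted by paired-end Illumina sequencing.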

| Variant | area with substrate ENLYFQC | area with substrate ENLYFQH | area with substrate ENLYFQK | area with substrate ENLYFQL | area with substrate ENLYFQM | area with substrate ENLYFQN | area with substrate ENLYFQR | area with substrate ENLYFQS | area with substrate ENLYFQT | area with substrate ENLYFQV | area with substrate ENLYFQW | area with substrate ENLYFQG | area with substrate ENLYFQI | area with substrate ENLYFQP | area with substrate ENLYFQD | area with substrate ENLYFQE | area with substrate ENLYFQQ | area with substrate ENLYFQY | area with substrate ENLYFQF |
| --- | --- | --- | --- | --- | --- | --- | --- | --- | --- | --- | --- | --- | --- | --- | --- | --- | --- | --- | --- |
| L5Q | 0.131 | 0.0839 | 0.0702 | 0.0696 | 0.0972 | 0.06 | 0.0635 | 0.118 | 0.0692 | 0.0495 | 0.0758 |  |  |  |  |  |  |  |  |
| R10L | 0.109 | 0.149 |  | 0.0619 | 0.0797 |  | 0.0574 | 0.107 | 0.0724 |  | 0.0691 |  |  |  |  |  |  |  |  |
| K7A | 0.103 |  | 0.072 |  |  |  | 0.0695 | 0.102 | 0.0984 |  | 0.0547 | 0.0964 | 0.0584 | 0.0704 |  |  |  |  |  |
| S26V | 0.0701 | 0.0666 | 0.0609 | 0.0694 | 0.0841 | 0.0674 | 0.0549 | 0.0785 | 0.0537 |  | 0.0592 |  | 0.0587 | 0.0591 | 0.0521 | 0.0692 | 0.0499 |  |  |
| S18P | 0.0878 | 0.0657 | 0.0578 |  | 0.0691 | 0.0547 | 0.0579 | 0.0754 |  |  |  | 0.0821 | 0.0486 | 0.0809 | 0.0491 |  |  | 0.063 |  |
| F41N | 0.112 | 0.0579 | 0.0576 | 0.0553 | 0.0701 | 0.0696 | 0.0653 | 0.0855 | 0.0544 |  |  | 0.0844 | 0.0756 | 0.0603 |  | 0.0598 | 0.0788 | 0.0637 | 0.0845 |
| V57T | 0.116 | 0.0874 |  | 0.0502 | 0.129 | 0.0501 | 0.0486 | 0.103 | 0.0723 |  | 0.0612 | 0.0983 | 0.063 |  | 0.0722 |  |  | 0.0676 | 0.0876 |
| V57K | 0.132 |  | 0.0438 | 0.058 |  |  | 0.0642 | 0.108 | 0.0644 |  | 0.0758 | 0.105 | 0.056 |  | 0.0785 |  |  | 0.0712 | 0.0463 |
| H21S | 0.104 | 0.0744 | 0.0632 | 0.0615 | 0.0901 | 0.0839 | 0.0596 | 0.102 | 0.0577 | 0.0573 | 0.0655 | 0.0889 | 0.0598 |  | 0.103 | 0.0723 | 0.0673 | 0.0414 |  |
| H21K | 0.109 | 0.0838 | 0.0577 | 0.0786 | 0.083 | 0.0623 | 0.0581 | 0.0946 | 0.0635 | 0.0777 | 0.0741 | 0.0973 | 0.0589 | 0.0491 |  | 0.0519 |  | 0.0802 |  |
| H62N | 0.109 |  | 0.0644 |  |  | 0.0776 | 0.0536 | 0.104 | 0.0753 |  | 0.0583 | 0.115 | 0.0427 |  |  |  |  |  |  |
| N45Q | 0.0671 | 0.0533 | 0.055 | 0.0563 | 0.0561 | 0.0723 | 0.0682 | 0.0608 | 0.0576 |  | 0.053 | 0.0757 |  | 0.172 |  |  | 0.0638 | 0.0712 |  |
| P9A | 0.111 |  | 0.0661 | 0.0828 | 0.0957 |  | 0.0611 | 0.0993 |  |  | 0.0708 | 0.0965 | 0.0762 | 0.0662 |  |  |  | 0.0609 | 0.0526 |
| I19Q | 0.115 |  | 0.0533 |  | 0.101 | 0.084 | 0.0646 | 0.104 | 0.0645 |  | 0.0631 | 0.0834 | 0.0583 | 0.0429 | 0.068 |  | 0.0786 |  | 0.053 |
| I19T | 0.1 | 0.0779 | 0.0553 | 0.0539 |  |  | 0.0542 | 0.0961 | 0.0607 |  | 0.0597 | 0.0912 | 0.0493 |  |  | 0.0459 | 0.0342 |  |  |
| G39D | 0.0229 | 0.0451 |  | 0.0438 | 0.043 | 0.046 | 0.0391 | 0.0452 | 0.0451 |  | 0.0548 | 0.0451 | 0.0419 |  | 0.0585 |  | 0.0461 | 0.0426 |  |
| S32N | 0.0927 |  | 0.0647 | 0.074 | 0.0758 | 0.0565 | 0.0704 | 0.0883 | 0.0449 | 0.0603 | 0.064 | 0.0684 | 0.0578 | 0.0458 | 0.0696 |  |  |  | 0.0985 |
| T31G | 0.108 | 0.0808 | 0.0587 | 0.0704 | 0.0976 | 0.0723 | 0.0538 | 0.0846 | 0.0631 | 0.0726 | 0.0947 | 0.0684 | 0.0758 | 0.0545 | 0.0726 |  | 0.0779 | 0.0822 | 0.0706 |
| T31C | 0.117 | 0.0778 | 0.0676 | 0.0678 | 0.104 | 0.086 | 0.0555 | 0.114 | 0.0757 | 0.0855 | 0.0694 | 0.119 | 0.0713 |  |  |  | 0.0767 |  | 0.108 |
| F49H | 0.0666 | 0.053 | 0.0488 | 0.0507 | 0.0637 | 0.0552 | 0.0457 | 0.0589 | 0.0642 | 0.0583 | 0.0587 | 0.035 |  |  |  |  | 0.0579 | 0.0491 |  |
| T23Q | 0.129 | 0.0791 |  | 0.0333 | 0.0868 |  | 0.0696 | 0.0935 | 0.064 | 0.0641 |  | 0.0941 | 0.0666 | 0.0639 | 0.0706 |  |  | 0.0609 |  |
| T44Q | 0.0452 |  | 0.0544 | 0.0357 | 0.0355 | 0.0403 | 0.0416 | 0.0431 | 0.0555 | 0.0341 | 0.0479 | 0.0449 | 0.0518 | 0.0389 | 0.0392 |  | 0.0476 | 0.0559 | 0.0379 |
| T44L | 0.0531 | 0.085 | 0.0681 | 0.046 | 0.0596 | 0.0411 | 0.0464 | 0.0653 | 0.0663 | 0.0501 | 0.0508 | 0.0993 | 0.0615 | 0.0501 | 0.0437 |  | 0.0512 | 0.0526 | 0.0553 |
| N53A | 0.0878 | 0.0827 | 0.0767 | 0.0562 | 0.0889 | 0.0807 | 0.0685 | 0.0934 | 0.0689 | 0.0691 | 0.0561 | 0.0798 | 0.0556 | 0.053 | 0.0731 |  | 0.0617 |  |  |
| L48H | 0.0526 | 0.0564 | 0.0648 | 0.06 | 0.0573 | 0.0465 | 0.0606 | 0.0615 |  | 0.0696 | 0.0547 | 0.0596 | 0.0561 |  | 0.0656 |  | 0.0483 | 0.0594 | 0.0264 |
